# ± gives the standard deviation of the averaged measurements. Some of the results follow.
# Test system: PfAP2-EXP AP2 domain (GST-tagged)
# Test: gcPBM binding intensity (ln(normalized median fluorescence intensity)); higher = stronger DNA binding
# Outline: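 For binding intensity, the highest Masliner-normalised natural-log median intensity across replicate spots of either probe orientation was taken. Protein bound to the array was stained with Alexa488 anti-GST antibody and scanned at 488 nm. The protein, GST-tagged P. falciparum DNA-binding domains from E. coli at about 25 μg on average, had been applied for 1 h to an Agilent 4 × 180k array of primer-extended double-stranded 36-bp intergenic genomic probes and negative controls.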
row,Sequence,gcPBM binding intensity (ln)
1,TTTGTGTAAAGAATCAGTACATATAATATATATATA [XGTACX_site1972],9.34 ± 0.33
2,TTTATTTATCTTTACGCACACACTTGCATGTACAAA [CACACA_site1118],9.3 ± 0.26
3,TACCTACCTTTACGGAGTACACAATAATAGTTATAA [XGTACX_site6593],8.74 ± 0.15
4,GATGATACGATTATCACACATTTATACTTTCTACAT [CACACA_site5669],8.56 ± 0.39
5,TGTATACATTATTAAGTGCAAGTAGGGAAAAAAAAA,8.86 ± 0.43
6,ATATAAAAATAATAGAGTACAAAAAAAAAATGTATA [XGTACX_site7054],8.92 ± 0.4
7,ATATAACTTTTAAAAGCATGCAAATATTTACTCAAT [TGCATGCA_site396],9.16 ± 0.46
8,TAAACATATACACGTACATGCAACGGATTTTTTTTT [TGCATGCA_site70],8.71 ± 0.26
9,CAAGAAAAGAAACACACACACATATATATATATATA [CACACA_site3881],10.1 ± 0.26
10,TTTTTACTATAAGGGGAAAAAAAAAAAAATAATATA [XGTACX_negctrl_site279],8.32 ± 0.46
11,TATATATATATATGTGCACACATAATAAAAAAAAAA [CACACA_site3830],10.32 ± 0.064
12,ATATGATTAATTAAGTGTACGTATTTATAATTATAA [XGTACX_site5783],8.68 ± 0.29
13,ATTACAATTTTAATAGTGCATTTTTATATATTTCTA [GTGCAC_site9918],8.59 ± 0.2
14,GAAGACAATTATATGTGTACATATATATACATATAT [XGTACX_site4630],8.44 ± 0.25
15,GGAATTCATATTAATTGTACATTTAAAGATAGATGA [XGTACX_site3279],8.6 ± 0.48
16,AGTAGATATTATTATAGTACTTTTTATTTTATATTT [XGTACX_site1551],8.36 ± 0.23
17,ATATTAAAGATATATACACACATATTTATAAATATA [CACACA_site7127],8.4 ± 0.52
18,AAAATTTATGGAAGGTGTACTGTTAATTATGTATAT [XGTACX_site6446],8.75 ± 0.21
19,TAATATGTGGACTTTACACACTTGTTTTAAAATTCT [CACACA_site4605],8.32 ± 0.3

row,Sequence,gcPBM binding intensity (ln)
1,ATATATATATATATATGTACTTATTTATTTATTTAT [XGTACX_site4645],10.2 ± 0.51
2,ATATTTTACATATTTGCACACATATATTTATATACA [CACACA_site855],8.78 ± 0.26
3,TTAATATATTTTAAAAGTACATAATATTATTTTTTA [XGTACX_site3642],8.04 ± 0.26
4,AAGAAAAGAACAAGAGCATGCACTTAATAAGAATAA [TGCATGCA_site818],9.76 ± 0.22
5,TTTAAATACAGACATACACACATACACAGACATATA [CACACA_site4460],8.69 ± 0.58
6,AAAAAAAACAGACACACACACATACAAAATATATAT [CACACA_site1449],8.73 ± 0.47
7,CTCTATTGTTAAAAGGTGCTTTTATGATTTTATATA [GTGCAC_site9409],8.6 ± 0.2
8,ATATTTTTATGTACTTCAAAAAAAAAGAAAAACAAA [CACACA_negctrl_site970],8.46 ± 0.4
9,TATAGTTTTGAAAACAAACACACAAAAAAAAAAAAA [CACACA_site1691],8.43 ± 0.55
10,AAGAGGTTAATGAAATGTACACATATATATATATAT [XGTACX_site1861],10.2 ± 0.17
11,TATGTAACCTGTTTTACACACCCCCACCCCCCTCTT [CACACA_site319],10.3 ± 0.17
12,ATAATTTCACAAATAGTGCAAAAATTAGTAAGAATA [GTGCAC_site9648],8.68 ± 0.25
13,TTTTTTTTCTATGTGGTGCACATTATTTTTTTTTTT,9.03 ± 0.16
14,TTTTATAAATATTATACATGCATAATGATAAAAAAA [TGCATGCA_site927],8.83 ± 0.28
15,AAAAATAAAGGATATACACACTAATTCTATAAATAT [CACACA_site7344],8.45 ± 0.29
16,TATAAGTATTAATACACACACAAAATAATAAAAAAA [CACACA_site3481],8.7 ± 0.21
17,GTCTCGATAATGAAAAGTACAAAATAAAAATAATAA [XGTACX_site6471],8.66 ± 0.35
18,TAAAGAATAATACATTCACACAATATTATAAAAATA [CACACA_site5986],8.38 ± 0.33
19,TATGATTAATTACCACAATTGACAAAAAAAAAAAAA [CACACA_negctrl_site336],8.36 ± 0.53

row,Sequence,gcPBM binding intensity (ln)
1,GAAATGTCATATAATAGTACACACATGAAAATATAA [XGTACX_site6838],8.81 ± 0.41
2,TTGTATGAATTTATTTTTATTGATAATTAATATGTA [TGCATGCA_negctrl_site143],8.18 ± 0.47
3,ATACAAAAGGGGAATACACACACATATATATATATA [CACACA_site8694],10.1 ± 0.33
4,AATAAACATAGATGTACACACATATACAGATATATA [CACACA_site5570],8.54 ± 0.38
5,TTGTTCTATATATATGCATGCACGTATGTTAAATTA [TGCATGCA_site659],10.17 ± 0.028
6,TATTAATTTTTATACGCATGTGTATAGTAATATATA [TGCATGCA_site1010],8.49 ± 0.35
7,TCTCATATATTGAATTGTACATATGTTAAAATATAG [XGTACX_site6764],8.62 ± 0.49
8,TATTTATTTTTTTTTGTGCACTTAATATAATCTTAC,8.94 ± 0.3
9,ACACTAACATCATATCGTACATTTGTTAATTTATAA [XGTACX_site8654],8.71 ± 0.39
10,TTTTCCCTCTTATTCACACAAAAAAAATAAAATAAA [CACACA_site4656],8.49 ± 0.61
11,TTTTTATTTATATGATACTTATATATATATATATAT [CACACA_negctrl_site462],10.2 ± 0.16
12,TTCTTAATATTGCATGCACACTATATAATAATTGAA [CACACA_site4720],10.41 ± 0.057
13,TCTTTTAAAAAAATTTGTACATATTTTTTGTATTAT [XGTACX_site67],8.54 ± 0.43
14,TGTTCTTTGTTCAGCGCATGTAAAATAAAATAAAAT [TGCATGCA_site629],9.04 ± 0.77
15,TTTTTTTTTGAATACAGTACACAAGTGTTAAGTTTA [XGTACX_site7069],8.26 ± 0.39
16,TATGAATATCTATACACACACATATATATACCCACT [CACACA_site4963],8.73 ± 0.67
17,GATTGATTATATGTGTGTACTTATATGTTAAAAAAA [XGTACX_site4784],8.74 ± 0.18
18,TTTATTCTTGAGTATTGTACATATGTGTTTGTATAT [XGTACX_site5706],8.57 ± 0.46
19,AAAGGTGTCATATATGCACACAAAAGTAACACGCAC [CACACA_site8051],9.27 ± 0.41

# Reference: the supplement of paper PMC11417369
